Measurements published in the RNAGym collection of RNA variant scans (doi:10.1093/nar/gkz1192).
Read counts are not given, so values of variants with three or more changes are uncertain.

B1: CPEB3 Ribozyme (parent)
chain: UAACAGGGGGCCACAGCAGAAGCGUUCACGUCGCAGCCCCUGUCAGAUUCUGGUGAAUCUGCGAAUUCUGCUGUAUAUCUC

Variants of: B1
Experiment: self-cleavage, relative activity (ratio to wild type); higher = more cleavage; in vitro, sequencing
In short: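 After error-prone PCR and barcoding, CPEB3 ribozyme mutant libraries were transcribed with T7 RNA polymerase at 37°C for 5 hours, then given 15 min with DNase I before an EDTA stop, and they cleaved during both steps. Reverse transcription with template switching preceded Illumina sequencing. Relative activity divides a variant's cleaved/total read fraction by the unmutated ribozyme's. At least 5 reads were required per variant, and three batches were averaged.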
With U25C G33A A45G A57C A65U U72A U80C the self-cleavage was 0.07. In the case of U25C G33A U48C A64G U69C U72A, the self-cleavage is reported as 0.04. Variant U25C G33A U60C U66C has a self-cleavage of 0.11. Variant U25C G33A U67C has a self-cleavage of 0.17. In the case of U25C G33A U69C U72C, the self-cleavage is reported as 0.06. With U25C G33A U72C the self-cleavage was 0.12. U25C G33A U80G gave a self-cleavage of 0.16. Work on U25C G33C A35G U49C U60C U69C yielded a self-cleavage of 0.13. Work on U25C G33C U72A yielded a self-cleavage of 0.1. With U25C G33U U41C the self-cleavage was 0.2. U25C G36A U41A A45C A56G A75U showed a self-cleavage of 0.05. For U25C G36A U51A U58C U76A, the self-cleavage was 0.15. With U25C G36C C37U U58C U80C the self-cleavage was 0.07. U25C G36C U41A showed a self-cleavage of 0.4. Variant U25C G36U C81U has a self-cleavage of 0.04. U25C G42A U49A showed a self-cleavage of 0.04. U25C G42U U49C gave a self-cleavage of 0.43. U25C G46C U60C showed a self-cleavage of 0.08. In the case of U25C G46U A56U U72C, the self-cleavage is reported as 0.15. With U25C G52A G63U the self-cleavage was 0.22. Work on U25C G52C A77G yielded a self-cleavage of 0.21. U25C G53C U67C U69A A77G gave a self-cleavage of 0.22. U25C G55C A57G U58A U78G showed a self-cleavage of 0.09. Variant U25C G55U A57G A64G U69C C71U has a self-cleavage of 0.15. With U25C G55U G73A the self-cleavage was 0.4. In the case of U25C G61A A64U U67C A77U, the self-cleavage is reported as 0.05. Variant U25C G61A U74C U78A has a self-cleavage of 0.06. U25C G61C U72A U76C gave a self-cleavage of 0.18. For U25C G63A U78A, the self-cleavage was 0.22. For U25C G63U U72A A77U U80C, the self-cleavage was 0.06. Work on U25C G73A A75G yielded a self-cleavage of 0.09. In the case of U25C U26A A28U U58C A65G U66C, the self-cleavage is reported as 0.1. U25C U26A A35G showed a self-cleavage of 0.61. U25C U26A A45C U51C U69C U72C showed a self-cleavage of 0.19. U25C U26A A45G A57G U60C U66G C79U showed a self-cleavage of 0.06. With U25C U26A A57G C71A the self-cleavage was 0.24. In the case of U25C U26A A77C, the self-cleavage is reported as 0.22. In the case of U25C U26A G53A, the self-cleavage is reported as 0.14. U25C U26A U41C A47G U49A C62U U80C showed a self-cleavage of 0.07. For U25C U26A U41C U78G, the self-cleavage was 0.12. U25C U26A U43G A45G U54C U67C U74C gave a self-cleavage of 0.11. For U25C U26C A28G C40G, the self-cleavage was 0.22. For U25C U26C A28U, the self-cleavage was 0.19. U25C U26C A35C U49A U72C U80A showed a self-cleavage of 0.1. For U25C U26C A45G A47G U72G U80C, the self-cleavage was 0.19. For U25C U26C A45G U51C, the self-cleavage was 0.37. U25C U26C A45G U60C U67C showed a self-cleavage of 0.04. U25C U26C A57G A77U showed a self-cleavage of 0.25. With U25C U26C C40U U43C A45U the self-cleavage was 0.09. Work on U25C U26C G33A U69A yielded a self-cleavage of 0. Work on U25C U26C G46C A64C yielded a self-cleavage of 0.15. With U25C U26C G61C A64G the self-cleavage was 0.19. With U25C U26C U31A A47G U48C G53U U60G the self-cleavage was 0.08. In the case of U25C U26C U31C U51G, the self-cleavage is reported as 0.27. Variant U25C U26C U31C U60A U72C has a self-cleavage of 0.18. In the case of U25C U26C U31G, the self-cleavage is reported as 0.13. With U25C U26C U41A A56U U60C A64G the self-cleavage was 0.48. U25C U26C U41A U69C gave a self-cleavage of 0.06. With U25C U26C U41C A45U U66C U80C the self-cleavage was 0.09. With U25C U26C U43A G61U U78C the self-cleavage was 0.16. For U25C U26C U43C, the self-cleavage was 0.18. For U25C U26C U49C, the self-cleavage was 0.33. Variant U25C U26C U49C U54C has a self-cleavage of 0.19. For U25C U26C U49C U74A, the self-cleavage was 0.32. Variant U25C U26C U60A A65U has a self-cleavage of 0.11. U25C U26C U60C G70A showed a self-cleavage of 0.05. With U25C U26C U60C U72C U80C the self-cleavage was 0.1. With U25C U26C U74A the self-cleavage was 0.26. U25C U26C U78C showed a self-cleavage of 0.27. For U25C U26G U31A, the self-cleavage was 0.28. For U25C U26G U43A U60A, the self-cleavage was 0.09. Variant U25C U26G U72A A75G has a self-cleavage of 0.44. For U25C U31A A45C, the self-cleavage was 0.11. U25C U31A A47G showed a self-cleavage of 0.2. In the case of U25C U31A A56G U74A, the self-cleavage is reported as 0.1. Work on U25C U31A A64U yielded a self-cleavage of 0.2. In the case of U25C U31A C40U U69A, the self-cleavage is reported as 0.44. In the case of U25C U31A G52A U60C, the self-cleavage is reported as 0.15. U25C U31A U48C U74C A75U U80C showed a self-cleavage of 0.13. U25C U31A U51A showed a self-cleavage of 0.28. U25C U31A U54C gave a self-cleavage of 0.12. For U25C U31A U69A U72C, the self-cleavage was 0.04. U25C U31A U69C gave a self-cleavage of 0.13. U25C U31C A35G U69A showed a self-cleavage of 0.15. For U25C U31C A45U, the self-cleavage was 0.23. U25C U31C A47G A57G U60A showed a self-cleavage of 0.05. For U25C U31C A65G U78C, the self-cleavage was 0.14. Work on U25C U31C C32A U43C U72G U76C yielded a self-cleavage of 0.05. Work on U25C U31C G36U A56G yielded a self-cleavage of 0.1. Variant U25C U31C G42A U51A has a self-cleavage of 0.09. In the case of U25C U31C G55U U69C U72C A77C U80C, the self-cleavage is reported as 0.05. For U25C U31C U41A U76A, the self-cleavage was 0.18. Work on U25C U31C U41C A45G yielded a self-cleavage of 0.06. Variant U25C U31C U41C U60C has a self-cleavage of 0.15. U25C U31C U49C U58C U72C U76C gave a self-cleavage of 0. U25C U31C U54C U67A gave a self-cleavage of 0.05. In the case of U25C U31C U54C U72A, the self-cleavage is reported as 0.05. Work on U25C U31C U67A yielded a self-cleavage of 0.15. In the case of U25C U31G A35G A45G U67C, the self-cleavage is reported as 0.01. In the case of U25C U31G A35G A56G U69C A75G U78C, the self-cleavage is reported as 0. For U25C U31G U43C U66G, the self-cleavage was 0.07. With U25C U31G U49G A56G the self-cleavage was 0.1. U25C U31G U78C gave a self-cleavage of 0.17. For U25C U41A A47G U51A A57G, the self-cleavage was 0.12. Variant U25C U41A U43C A64U has a self-cleavage of 0.13. U25C U41A U48C U51C A64U gave a self-cleavage of 0.15. For U25C U41A U51C A57G U80C, the self-cleavage was 0. For U25C U41A U54C, the self-cleavage was 0.23. U25C U41A U66C gave a self-cleavage of 0.27. With U25C U41A U69C the self-cleavage was 0.22. U25C U41A U76A A77G gave a self-cleavage of 0.15. Work on U25C U41C A45G U48G A56G yielded a self-cleavage of 0.44. U25C U41C A47C A64G showed a self-cleavage of 0.13. In the case of U25C U41C A47G U51C U76A A77G, the self-cleavage is reported as 0.03. Work on U25C U41C A47G U54A U67G yielded a self-cleavage of 0.2. U25C U41C A47G U80C gave a self-cleavage of 0.29. Variant U25C U41C A56U U69A A77U has a self-cleavage of 0.07. Work on U25C U41C A57G yielded a self-cleavage of 0.11. In the case of U25C U41C A64C, the self-cleavage is reported as 0.18. U25C U41C A64G U78C gave a self-cleavage of 0.1. With U25C U41C A65G U66C the self-cleavage was 0.23. Variant U25C U41C G46U has a self-cleavage of 0.08. Work on U25C U41C U43A U80C yielded a self-cleavage of 0.21. For U25C U41C U51C, the self-cleavage was 0.14. U25C U41C U60C A65G A75U gave a self-cleavage of 0.12. Variant U25C U41C U78C has a self-cleavage of 0.16. For U25C U41G U76A, the self-cleavage was 0.06. U25C U43A A45U A47U U58C U78C gave a self-cleavage of 0.08. U25C U43A U51G U78C showed a self-cleavage of 0.1. With U25C U43A U54A the self-cleavage was 0.13. With U25C U43A U54A G63A A77G the self-cleavage was 0.16. U25C U43A U60A U69A U78C U80C gave a self-cleavage of 0.06. For U25C U43A U80C, the self-cleavage was 0.28. In the case of U25C U43C A45U U49C U78C, the self-cleavage is reported as 0.21. Work on U25C U43C A47G U60C U80C yielded a self-cleavage of 0.12. In the case of U25C U43C A77U, the self-cleavage is reported as 0.32. Work on U25C U43C C50A A64G yielded a self-cleavage of 0.24. U25C U43C C59A A77G showed a self-cleavage of 0.46. Work on U25C U43C G70A yielded a self-cleavage of 0.17. With U25C U43C U48C the self-cleavage was 0.19. With U25C U43C U48C A65G the self-cleavage was 0.17. U25C U43C U49A G61C U72C showed a self-cleavage of 0.36. Work on U25C U43C U51C A57U yielded a self-cleavage of 0.08. U25C U43C U54G U60C gave a self-cleavage of 0.11. U25C U43C U58C showed a self-cleavage of 0.19. With U25C U43C U66A the self-cleavage was 0.14. For U25C U43C U66C U72A A77G, the self-cleavage was 0.18. Work on U25C U43C U67C yielded a self-cleavage of 0.1. U25C U48A U54A showed a self-cleavage of 0.16. In the case of U25C U48C A56G U74A, the self-cleavage is reported as 0.07. In the case of U25C U48C G53U, the self-cleavage is reported as 0.14. U25C U48C U51C gave a self-cleavage of 0.22. U25C U48C U58A U80C gave a self-cleavage of 0.42. For U25C U48C U60C, the self-cleavage was 0.13. U25C U48C U66C U67A U69C showed a self-cleavage of 0.06. U25C U48C U66C U72A showed a self-cleavage of 0.15. U25C U48C U78A showed a self-cleavage of 0.22. For U25C U48G U67C U78C C81U, the self-cleavage was 0.08. For U25C U49A U58A U67C, the self-cleavage was 0.13. U25C U49A U60C G61U C62G U72C gave a self-cleavage of 0.05. U25C U49C A64G gave a self-cleavage of 0.26. With U25C U49C A65G U66C U72C the self-cleavage was 0.1. Variant U25C U49C U51A U69A U78A has a self-cleavage of 0.08. U25C U49C U54C A57G showed a self-cleavage of 0.11. For U25C U49C U66A, the self-cleavage was 0. U25C U49C U69A gave a self-cleavage of 0.08. U25C U49C U69C U72C showed a self-cleavage of 0.07.
